This is an account of results in ChEMBL document CHEMBL4888484, “Replenishing the malaria drug discovery pipeline: Screening and hit evaluation of the MMV Hit Generation Library 1 (HGL1) against asexual blood stage Plasmodium falciparum ,using a nano luciferase reporter read-out” (2022).

Hit rate of the full screen: of about 150,000 compounds, about 540 (0.36%) showed an effect of 50% or more. This is one part of the list.

The test concerns Plasmodium falciparum. Description: Primary screen in NF54 nanoGlo assay, in single point, at 2uM, 72h; a lower Z score goes with more inhibition. Particulars: timepoint 72 hour. The format is functional, Erythrocyte.
Usually % Inhibition stands for the drop in the measured response relative to a control, in per cent. As for `CCN1C[C@]2(CCCN(C(=O)COc3ccccc3O)C2)CCC1=O`, the “% Inhibition” value was -9% and the Z score was found to be 1.71.
For the molecule `Cc1cccc2c1OCC(NC(=O)N1CCCC1C1COCCC1(C)O)C2` (stereo unspecified), the “% Inhibition” value is on record as -2% and the Z score is given as 0.38.
For `C[C@H](NCc1cc(C(N)=O)cs1)c1cccc(Cl)c1` the same measures were 34% and -1.06.
For `CC(C)(C)n1ncc(-c2ccccc2)c1NC(=O)c1cnccn1` the same measures were -7% and 1.09.
For `COCCN(Cc1cccn1C)C[C@H](O)COCC(C)C` the same measures were -8% and 1.12.
For the molecule `Cc1c(NC(=O)c2ccc3c(c2)N(C)CCO3)cccc1C(=O)N1CCOCC1`, the “% Inhibition” value is recorded as 2% and the Z score is listed as -0.27.
The corresponding values for `COCCN(Cc1cc2cc(C)ccc2nc1N1CCCC1)C(=O)c1cc(C)nn1C` are -14% and 1.78.
Take `CN(C)S(=O)(=O)c1ccc(N2CCCC2)c(C(=O)N2CCCN(C(N)=O)CC2)c1`: the “% Inhibition” value came out at 0% and the Z score is given as 0.04.
For the molecule `COCc1nc(CCCc2ccc(Cl)cc2)n(CC(C)(C)O)n1`, the “% Inhibition” value was -14% and the Z score is 1.75.
For `O=C(N[C@H]1CCOC[C@@H]1OCC1CCC1)c1ccnc(-n2cnnc2)c1` the same measures were -3% and 0.41.
Take `CC(C)n1c(N2CCN(C(=O)Cc3ccccc3)CC2)cc(=O)n(C(C)C)c1=O`: the “% Inhibition” value worked out at 3% and the Z score is -0.43.
Regarding `O=c1[nH]c2cccnc2n1[C@@H]1CCN(Cc2c[nH]nc2-c2ccc(F)cc2)C1`, the “% Inhibition” value is 0% and the Z score is -0.05.
The corresponding values for `O=C(Nc1ccccc1)C(=O)N1CCN(CC2CC2)[C@@H]2CS(=O)(=O)C[C@@H]21` are -7% and 0.76.
For `COc1ccc(-c2noc(-c3cccnc3NCc3ccc(C)cc3)n2)cc1` the same measures were -3% and 0.39.
The corresponding values for `OCC[C@H]1CCc2ccccc2N1Cc1cnc2ccccc2n1` are 4% and -0.42.
Consider `COc1cc(OC)cc([C@@H]2c3nc[nH]c3CCN2CC2CCCC2)c1`, for which the “% Inhibition” value stood at 2% and the Z score is -0.37.
In the case of `CC(=O)N[C@H]1C[C@H]2CN(Cc3ccc(C)cn3)[C@@H](CC(C)C)C(=O)N2C1`, the “% Inhibition” value was -6% and the Z score stood at 1.
For `CCOc1ncc(Br)cc1C(=O)O` the same measures were 33% and -4.23.
As to `Cc1ccc(OCC(=O)Nc2ccc3c(c2)OCO3)cn1`, the “% Inhibition” value is -9% and the Z score came to 1.28.
For `Cc1nn(C)c(C(=O)N2CCC3(CCCC3)C2)c1Cl` the same measures were 1% and -0.28.
On to `NC(=O)c1ccc(C(=O)N[C@H]2CCOC[C@@H]2OCc2cscn2)cc1`, for which the “% Inhibition” value is -3% and the Z score worked out at 0.46.
The corresponding values for `CN(C[C@H]1CCN(C)C1(C)C)C(=O)C(=O)CCc1ccccc1` are -1% and 0.1.
The corresponding values for `COc1ccc(C2CN(C(=O)CC(C)(C)C)CC2C(=O)N2CCCC2)cc1` (stereo unspecified) are 3% and -0.37.
The corresponding values for `C[C@@H](CC(C)(C)O)NCCOc1ccccc1Cl` are -7% and 0.82.
Regarding `C[C@H]1CCCCCN1C(=O)C1=CCCCO1`, the “% Inhibition” value was 8% and the Z score was -0.73.
`O=C(Cn1cnc2c(c1=O)COCC2)c1ccccc1OC(F)F`: the “% Inhibition” value was -5% and the Z score was found to be 0.55.
For `Cc1ccc2oc(N3C[C@@H]4OC(=O)N(C5CCN(C(C)C)CC5)[C@@H]4C3)nc2c1` the same measures were 6% and -1.11.
For `COc1ncc(Cl)c(N2CCC(c3nc(C)no3)CC2)n1` the same measures were 2% and -0.44.
The corresponding values for `O=C(Nc1ccccc1)N(CCc1ccncc1)C1CCCCC1` are -11% and 1.76.
Turning to `C[C@H](Oc1ccccc1)C(=O)N1CCn2nc(Cc3ccccc3)cc2C1`, the “% Inhibition” value is -3% and the Z score was 0.39.
The corresponding values for `CNc1nc(N2CCC3(CCC(=O)N(C[C@H]4CCCO4)C3)CC2)ncc1F` are -5% and 0.63.
The corresponding values for `COc1ccc(C)cc1Nc1cc(C(=O)N2CCC(C)CC2)nc2ccc(F)cc12` are -5% and 0.58.
The corresponding values for `CC(C)[C@H](CNC(=O)c1cn[nH]c1C(F)(F)F)c1ccccc1` are -13% and 1.48.
Regarding `O=C(Cc1ccccc1Cl)N1CC[C@H](Oc2ccc3ccccc3n2)C1`, the “% Inhibition” value was -5% and the Z score came to 0.96.
For `C[C@H](NC(=O)Nc1ccc2c(c1)OCCO2)c1nccc(N)n1`, the “% Inhibition” value is listed as -9% and the Z score was 1.34.
For `Brc1ccc(C2=NNC(c3ccccc3)=Nc3cccnc32)cc1` the same measures were 4% and -0.54.
The corresponding values for `Cc1ocnc1C(=O)N1CCCCC[C@@H]1CC(=O)c1ccccc1` are -10% and 1.53.
Turning to `O=C(NC[C@@H]1COc2ccccc2C1)c1cn[nH]c1C(F)(F)F`, the “% Inhibition” value was -7% and the Z score worked out at 0.76.
In the case of `O=C1C[C@@H]2CCN(C(=O)c3ccccc3)C[C@@H]2CCOc2ncccc2N1`, the “% Inhibition” value is on record as 4% and the Z score is -0.67.
For the molecule `CC1CCCCC1NCCN1CCCCC1` (stereo unspecified), the “% Inhibition” value is on record as -9% and the Z score was 1.21.
For `Cc1ccc(C)c2c(C)c(C(=O)NC3(CO)CCCCC3)[nH]c12` the same measures were -8% and 1.05.
The corresponding values for `Cn1cc(Cn2nnc3c(cnn3-c3ccccc3)c2=O)cn1` are -5% and 0.84.
The corresponding values for `O=C(NCc1ccc[nH]1)C1CCCC(F)C1` (stereo unspecified) are 3% and -0.62.
